According to article PMC4336329 (PLoS ONE, 2015):
Screen size: about 310,000 compounds; about 2,200 (0.71%) showed an effect of 50% or more. Effects have a minus sign here. Some of the results follow.

Target: human ether-à-go-go-related gene (hERG) potassium channel (human, UniProt Q12809)
Assay: primary screen, population patch clamp on CHO cells stably expressing hERG

Sequence of human ether-à-go-go-related gene (hERG) potassium channel (Q12809 whole entry, looked up): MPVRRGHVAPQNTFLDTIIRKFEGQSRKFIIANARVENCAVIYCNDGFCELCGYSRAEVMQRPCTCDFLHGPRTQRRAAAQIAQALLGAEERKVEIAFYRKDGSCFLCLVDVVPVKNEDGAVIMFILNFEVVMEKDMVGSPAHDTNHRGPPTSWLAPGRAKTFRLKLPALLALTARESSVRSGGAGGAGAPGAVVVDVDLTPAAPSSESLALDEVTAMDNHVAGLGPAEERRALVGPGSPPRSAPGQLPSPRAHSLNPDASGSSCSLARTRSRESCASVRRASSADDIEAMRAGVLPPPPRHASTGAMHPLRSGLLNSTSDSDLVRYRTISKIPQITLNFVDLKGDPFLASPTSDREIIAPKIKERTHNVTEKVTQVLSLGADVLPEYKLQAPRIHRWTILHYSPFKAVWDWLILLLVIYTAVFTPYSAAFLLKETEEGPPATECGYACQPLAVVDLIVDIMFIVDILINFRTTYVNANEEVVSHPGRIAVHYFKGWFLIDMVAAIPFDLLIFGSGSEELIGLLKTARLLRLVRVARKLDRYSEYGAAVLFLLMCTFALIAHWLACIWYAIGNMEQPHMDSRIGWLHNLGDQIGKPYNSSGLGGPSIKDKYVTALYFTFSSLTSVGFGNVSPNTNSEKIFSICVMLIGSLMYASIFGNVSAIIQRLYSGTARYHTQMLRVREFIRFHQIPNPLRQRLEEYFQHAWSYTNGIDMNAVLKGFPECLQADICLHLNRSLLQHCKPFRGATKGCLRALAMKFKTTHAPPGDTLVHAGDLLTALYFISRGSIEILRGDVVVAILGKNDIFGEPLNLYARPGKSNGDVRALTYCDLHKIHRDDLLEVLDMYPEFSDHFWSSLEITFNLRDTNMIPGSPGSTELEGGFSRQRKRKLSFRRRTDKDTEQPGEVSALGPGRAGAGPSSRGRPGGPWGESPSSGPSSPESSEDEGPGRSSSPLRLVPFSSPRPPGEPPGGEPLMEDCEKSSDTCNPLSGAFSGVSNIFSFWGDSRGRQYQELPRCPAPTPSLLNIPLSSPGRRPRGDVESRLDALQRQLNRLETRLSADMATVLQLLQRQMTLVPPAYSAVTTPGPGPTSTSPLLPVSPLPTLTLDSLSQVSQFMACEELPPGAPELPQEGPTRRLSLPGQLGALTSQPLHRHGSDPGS

Row | SMILES | hERG current change (%, negative = inhibition) at 1uM [%]
1 | CN(C)C(CNS(=O)(=O)c1ccc2ccccc2c1)c1ccccc1.Cl (stereo not drawn) | 9.14
2 | CC(=O)c1ccc(Oc2ncnc(N)c2[N+](=O)[O-])cc1 | 14.7
3 | CCOC(=O)c1c(C)nc(C)c(C(=O)OCC)c1-c1cccc(N)c1 | 9.85
4 | CC(=O)c1cccc(OCc2cc(C(=O)N3C[C@H]4CC[C@H]3C4)no2)c1 | 14.5
5 | O=C(Cn1cc([N+](=O)[O-])cn1)N1CCc2ccccc2C1 | 9.59
6 | COc1cc(C(=O)Nc2nc3ccc(S(=O)(=O)N4CCOCC4)cc3s2)cc(OC)c1OC | 13.5
7 | C=CCSc1nnnn1-c1ccc(OC)cc1 | -5.94
8 | Cc1cn(-c2cc(NC(=O)c3ccc(C)c(NC(=O)c4cccc(-c5cn[nH]c(=O)c5)c4)c3)cc(C(F)(F)F)c2)cn1.O=C(O)C(F)(F)F | 13.2
9 | CSc1nc(-c2ccco2)nn1S(=O)(=O)c1ccccc1 | 10.4
10 | COc1ccc(COc2ccccc2C(N)=O)cc1F | 6.23
11 | O=C(COC(=O)c1cccnc1)Nc1ccc(F)cc1 | 3.47
12 | CCOc1ccccc1OCCn1nc2ccccc2n1 | 11.8
13 | O=C(O)C1=CC[C@@H](c2ccc(Cl)cc2)N(S(=O)(=O)c2ccc(Cl)cc2)C1 | 17.8
14 | COc1cccc(N2CC(O)Cn3c2nc2c3c(=O)[nH]c(=O)n2C)c1 (stereo not drawn) | 7.58
15 | CCC(=O)c1ccc(OCC(=O)NCC2(N3CCCCC3)CCCCC2)cc1 | -12.3
16 | COc1cc2c(cc1NC(=O)COC(=O)[C@@H](NC(=O)c1ccccc1)C(C)C)oc1ccccc12 | 8.52
17 | Cc1ccc(F)c([C@H]2[C@H]3C=CC[C@@H](C)[C@@H]3C(=O)N2Cc2ccccc2)c1 | 6.98
18 | CCCCn1c(-c2nn(C)cc2Cl)n[nH]c1=S | 9.29
19 | O=C1CCC(Cc2ccccc2)N1 (stereo not drawn) | 7.81
20 | CSC(SC)=C(C#N)C(=O)c1ccccc1 | 12.3
21 | Cc1oc2ccc(NS(=O)(=O)c3cccc4cccnc34)cc2c1C(=O)OC(C)C | 10.8
22 | CC(=O)c1ccc(N2CCN(C(=O)c3c(-c4ccccc4Cl)noc3C)CC2)cc1 | -4.28
23 | O=C(O)C(=O)O.O=C(c1cccc(Cl)c1)N1CCN(Cc2c[nH]c3ccccc23)CC1 | -0.13

Row | SMILES | hERG current change (%, negative = inhibition) at 1uM [%]
24 | O=C(NCC1CCCO1)c1ccc2nc(N3CCCCC3)sc2c1 (stereo not drawn) | -3.12
25 | CCCCC(NC(=O)Cc1c(C)c2cc3c(-c4ccccc4)coc3c(C)c2oc1=O)C(=O)O (stereo not drawn) | 12.1
26 | CN1CCC(OC(=O)c2ccccc2)CC1.Cl | 10.9
27 | CN(Cc1ccccc1)c1ncnc2ccc(Br)cc12 | -0.465
28 | O=C(NC(=S)Nc1ccccc1O)c1ccccc1Cl | 5.01
29 | COC(=O)C1=C(N)Oc2cc(C)n(CCCn3ccnc3)c(=O)c2C1c1ccc(Cl)cc1 (stereo not drawn) | -19.9
30 | CCN1C(=O)[C@@H]2[C@@H](c3ccc(-c4ccc(F)cc4)cc3)N3CCC[C@@]3(C(=O)OC)[C@@H]2C1=O.O=C(O)C(F)(F)F | -4.41
31 | CC(C)Oc1cccc(C(=O)C2CCCN(S(=O)(=O)C(C)C)C2)c1 (stereo not drawn) | 1.11
32 | COc1cc(N2C(=O)c3ccccc3C2=O)c(Cl)cc1C(=O)OCC(=O)NCc1ccco1 | -5
33 | COc1cc2c(cc1OC)C1(CCCC1)CNC2C.Cl (stereo not drawn) | 6.52
34 | COCCNC(=O)c1cc2ncc(Br)cn2n1 | 2.63
35 | NC(=O)c1nnn(-c2cccc(C(F)(F)F)c2)c1-c1ccccc1 | 8.21
36 | O=C(CCc1nc(-c2ccccc2Cl)no1)Nc1cccnc1 | 11
37 | CCOC(=O)c1cc(CC)sc1NC(=O)CN1CCN(C(=O)C2CCCO2)CC1 (stereo not drawn) | -31.9
38 | O=C(Cn1ccc2ccccc2c1=O)NCCC(=O)N1CCN(c2cccc(Cl)c2)CC1 | 8.43
39 | CCCCn1c(SCC(=O)N2c3ccccc3CCc3ccccc32)nc2c1c(=O)n(C)c(=O)n2C | 5.33
40 | CC(C)(C)C1CCc2c(sc3c2C(=O)NC(c2ccco2)N3)C1 (stereo not drawn) | 4.81
41 | CCCCCCC(=O)Nc1ccc(Br)cn1 | 7.53
42 | COc1ccc(CCNC(=O)C(=O)NCC2OCCN2S(=O)(=O)c2ccc(OC)c(OC)c2)cc1 (stereo not drawn) | 1.72
43 | Cc1cc(C(=O)Nc2ccccc2C(=O)O)c(C)o1 | 13.1
44 | COc1ccc(Cc2c[nH]c(=O)[nH]c2=O)cc1 | 2.09
45 | COc1ccc(NC(=O)CSc2nccn2Cc2ccc(F)cc2)c(OC)c1 | 1.72
46 | COc1ccc(Br)cc1CN1CCN(c2ncccn2)CC1 | 10.9

Row | SMILES | hERG current change (%, negative = inhibition) at 1uM [%]
47 | NC(=O)CSc1nnc(-c2cccc(S(=O)(=O)N3CCCCC3)c2)o1 | 18.5
48 | O=C(Nc1cccc2ncccc12)c1cc(Br)ccc1Cl | 8.11
49 | CCOP(=O)(CN(CC)C(=O)c1ccccc1Br)OCC | 5.06
50 | CC(=O)CSc1ncnc2sc3c(c12)CCCC3 | 6.87
51 | NS(=O)(=O)c1ccc(CNC(=O)C2(c3ccc(Cl)cc3)CC2)cc1 | 15.5
52 | CCOC(=O)c1sc(NC(=O)c2c(CC)noc2C)nc1C | -2.2
53 | Cc1ccc(NC(=O)COc2ccc3c(c2)OCO3)c(C)c1 | 2.48
54 | CN(NC(=O)c1ccccc1F)c1nc(C(F)(F)F)nc2ccccc12 | 14.3
55 | CN1C[N+]([O-])=C(c2ccccc2)C1(C)C | 13.2
56 | COc1ccc(OC)c(S(=O)(=O)N2CCC(C(=O)N3CCCC3)CC2)c1 | 6.81
57 | O=C(O)CSc1nnc2n(-c3ccccc3)c(=O)c3ccccc3n12 | 17.2
58 | COC(=O)C[C@H]1c2cc(F)ccc2S(=O)(=O)N1c1ccc(N(C)C)cc1 | 14.2
59 | c1ccc(Cc2noc(CN3CCCN(C4Cc5ccccc5C4)CC3)n2)cc1 | -66
60 | O=C(Cc1nnc(NC(=O)Nc2ccc(F)cc2)s1)Nc1ccccc1 | 12.9
61 | O=C(OCC(F)(F)F)c1cccc(COc2ccc3ccccc3c2)c1 | 7.36
62 | CCc1c(C)nc2cc(-c3ccc(OC)c(OC)c3)nn2c1N1CCCC1 | 11.6
63 | O=c1[nH]c(/C=C/c2cccnc2)c([N+](=O)[O-])c(=O)[nH]1 | 13.8
64 | CC(NS(=O)(=O)c1ccccc1)C(=O)NC1CCCC1 (stereo not drawn) | 2.97
65 | Cc1nn(C(=O)c2cccc([N+](=O)[O-])c2)c(C)c1Br | 9.17
66 | COc1ccccc1C(CCN(Cc1cccs1)C(C)=O)c1ccco1 (stereo not drawn) | 11.5
67 | COc1ccc(CNCC(O)COc2ccc(C)cc2[N+](=O)[O-])cc1 (stereo not drawn) | -16.3
68 | CCCCc1c(C)c2cc(C)ccc2[nH]c1=O | 9.98
69 | COc1ccc(S(=O)(=O)Nc2ccc(N3CCOCC3)nc2)cc1 | 8.26

Row | SMILES | hERG current change (%, negative = inhibition) at 1uM [%]
70 | Cc1ccc2c3c([nH]c2c1)C(=O)CC(C)(C)S3 | -0.882
71 | CCNc1cc(Nc2c(C)n(C)n(-c3ccccc3)c2=O)c([N+](=O)[O-])c2nonc12 | 4.86
72 | CCC(CC)C(=O)NCc1ccccc1OC | 2.6
73 | CCc1ccc(NC(=O)CC2C(=O)NCCN2C(=S)Nc2ccccc2)cc1 (stereo not drawn) | 1.79
74 | COc1ccc(OC)c(CN2CCC(Cc3ccccc3)CC2)c1.O=C(O)C(=O)O | -61.9
75 | Cc1ccc(NC(=O)C(Cc2ccccc2)NC(=O)c2ccco2)cc1 (stereo not drawn) | -4.32
76 | OC1CCCN(C(=S)NCc2ccccc2)C1 (stereo not drawn) | 5.3
77 | O=C(COc1c(Br)cc(Br)c2cccnc12)N1CCCCC1 | -3.18
78 | CCCOc1ccc(N2C(=O)CC(NCCNc3ccc(S(=O)(=O)CC)cc3)C2=O)cc1 (stereo not drawn) | -10.9
79 | COc1ccc(CCNC(=O)COC(=O)c2ccc(Br)o2)cc1OC | 6.76
80 | CC(=O)c1cnc(N(C)C)s1 | 8.54
81 | Cc1ccc(NC(=O)COC(=O)c2cccc(N3C(=O)c4ccccc4C3=O)c2)cc1 | 21.1
82 | O=C(Nc1ccc2nc3n(c(=O)c2c1)CCCCC3)C(=O)N1CCN(c2ccc(F)cc2)CC1 | 15.8
83 | CCOC(=O)Cn1c(CN2CCN(C(=O)c3ccco3)CC2)nc2c1c(=O)n(C)c(=O)n2C | 12.8
84 | O=C(COC(=O)CSCc1ccccc1)NCc1ccccc1 | 10.4
85 | Cc1[nH][nH]c(=O)c1C=NCc1cccs1 | 9.49
86 | Cc1ccc(S(=O)(=O)Cc2ccc([N+](=O)[O-])cc2)cc1 | 9.79
87 | O=C(NC1CCCCCC1)C(=O)NC1CCCC1 | 8.6
88 | CCCc1cc(=O)oc2c(C)c(OCC(=O)NCc3ccccn3)ccc12 | 9.5
89 | CC(C)c1ccc(NC(=S)N2CCN(Cc3ccccc3)CC2)cc1 | 14.9
90 | COc1ccc(/C=N/NC(=O)c2cccnc2)cc1COc1ccc([N+](=O)[O-])c(C)c1 | 10.3
